This is a selection; strong and weak results do not stand in their true shares. The list includes weakly bound sequences.
Tests used:
Experiment in all cases: protein-binding microarray (PBM)
Settings in all cases: PBM: ~300 nM protein, 6 mM HEPES pH 7.8, 80 mM KCl, 0.5 mM EDTA, 0.5 mM EGTA, 6% glycerol, 35 ng/ul poly-dIdC, 1% milk, 1 h, room temperature; Ap Aiptasia and Nv Nematostella (sea anemones) / Co Capsaspora / Aq Amphimedon (sponge) / Dm Drosophila / Hu human; RHD is the Rel homology domain; high values mean tight binding; most listed sequences are background and not binding sites; double strand, one strand shown
GST-Ap-NF-kB RHD = target: T1, GST-Ap-NF-kB RHD (UniProt A0A913YAJ5)
T1 sequence: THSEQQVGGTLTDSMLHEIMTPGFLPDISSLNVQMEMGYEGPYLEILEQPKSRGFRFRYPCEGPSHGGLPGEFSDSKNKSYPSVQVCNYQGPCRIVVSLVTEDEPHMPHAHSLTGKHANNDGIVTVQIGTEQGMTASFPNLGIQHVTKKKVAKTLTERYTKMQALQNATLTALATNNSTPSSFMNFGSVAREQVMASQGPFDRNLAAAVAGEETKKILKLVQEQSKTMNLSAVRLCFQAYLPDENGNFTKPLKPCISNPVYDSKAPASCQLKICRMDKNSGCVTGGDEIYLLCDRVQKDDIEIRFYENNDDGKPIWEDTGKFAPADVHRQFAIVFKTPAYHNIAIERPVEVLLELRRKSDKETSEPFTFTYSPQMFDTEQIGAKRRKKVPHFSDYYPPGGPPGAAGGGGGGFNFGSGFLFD

[1] = target: T2, GST-Nv-NF-kB (Cys allele) (UniProt E5G601)
T2 sequence: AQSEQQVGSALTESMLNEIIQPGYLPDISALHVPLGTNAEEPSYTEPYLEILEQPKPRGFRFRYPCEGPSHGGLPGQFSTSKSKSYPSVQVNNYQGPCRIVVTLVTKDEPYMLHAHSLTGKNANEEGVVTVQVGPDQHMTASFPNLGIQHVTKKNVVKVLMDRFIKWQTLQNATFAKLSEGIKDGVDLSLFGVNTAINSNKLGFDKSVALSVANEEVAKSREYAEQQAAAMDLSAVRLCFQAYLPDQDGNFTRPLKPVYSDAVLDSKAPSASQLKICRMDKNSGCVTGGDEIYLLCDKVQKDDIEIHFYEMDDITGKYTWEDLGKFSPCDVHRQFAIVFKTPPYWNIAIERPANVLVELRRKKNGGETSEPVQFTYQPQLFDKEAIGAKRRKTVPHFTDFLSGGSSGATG

GST-Co-NF-kB = target: T3, GST-Co-NF-kB (UniProt F1ARL5)
T3 sequence: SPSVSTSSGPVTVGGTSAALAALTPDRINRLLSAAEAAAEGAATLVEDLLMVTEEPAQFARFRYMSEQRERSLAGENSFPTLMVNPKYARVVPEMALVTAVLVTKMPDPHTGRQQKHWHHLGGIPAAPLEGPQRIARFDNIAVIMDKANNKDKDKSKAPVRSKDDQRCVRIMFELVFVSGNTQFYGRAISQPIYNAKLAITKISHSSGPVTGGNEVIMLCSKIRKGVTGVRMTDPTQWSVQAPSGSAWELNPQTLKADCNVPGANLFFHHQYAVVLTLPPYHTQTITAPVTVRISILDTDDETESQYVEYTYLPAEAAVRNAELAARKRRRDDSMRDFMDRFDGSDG

Row | Sequence | binding signal (GST-Ap-NF-kB RHD) [z-score] | binding signal [1] [z-score] | binding signal (GST-Co-NF-kB) [z-score]
1 | CCGATTAACATCAACGGAATTCCTGATGTTAATCGGGTCTTGATTCGCTTGACGCTGCTG | 0.102 | 0.482 | 0.208
2 | CCGATTAACATCACGGGGGATTATGATGTTAATCGGGTCTTGATTCGCTTGACGCTGCTG | 7.59 | 6.57 | 6.84
3 | CCGATTAACATCAGGGATGCCCATGATGTTAATCGGGTCTTGATTCGCTTGACGCTGCTG | 0.575 | 0.793 | 0.358
4 | CCGATTAACATCAATATTTCCCCTGATGTTAATCGGGTCTTGATTCGCTTGACGCTGCTG | 8.09 | 10.1 | 10.7
5 | CCGATTAACATCACCGGATTTCCTGATGTTAATCGGGTCTTGATTCGCTTGACGCTGCTG | 0.853 | 0.688 | 0.397
6 | CCGATTAACATCACGGGATGTACTGATGTTAATCGGGTCTTGATTCGCTTGACGCTGCTG | 0.791 | -0.333 | 0.926
7 | CCGATTAACATCACGTGGTTTCCTGATGTTAATCGGGTCTTGATTCGCTTGACGCTGCTG | 0.303 | -0.188 | 0.354
8 | CCGATTAACATCAAAAATTTCCATGATGTTAATCGGGTCTTGATTCGCTTGACGCTGCTG | -0.195 | 0.0391 | -0.204
9 | CCGATTAACATCAAGGTATTCCCTGATGTTAATCGGGTCTTGATTCGCTTGACGCTGCTG | 4.4 | 3.82 | 3.21
10 | CCGATTAACATCACCCTTGCAGGTGATGTTAATCGGGTCTTGATTCGCTTGACGCTGCTG | -0.215 | 0.361 | 0.345
11 | CCGATTAACATCACCGGAAATCCTGATGTTAATCGGGTCTTGATTCGCTTGACGCTGCTG | 0.78 | 0.361 | -0.511
12 | CCGATTAACATCACTTTTTCCCCTGATGTTAATCGGGTCTTGATTCGCTTGACGCTGCTG | 6.12 | 7.44 | 10.6
13 | CCGATTAACATCAAGGTTTTTCCTGATGTTAATCGGGTCTTGATTCGCTTGACGCTGCTG | 0.393 | 0.922 | 0.533
14 | CCGATTAACATCAAATTTTCCCCTGATGTTAATCGGGTCTTGATTCGCTTGACGCTGCTG | 7.95 | 9.83 | 11.6
15 | CCGATTAACATCAGGGGGATGTATGATGTTAATCGGGTCTTGATTCGCTTGACGCTGCTG | 4.97 | 4.88 | 4.13
16 | CCGATTAACATCAAAAATTCCGCTGATGTTAATCGGGTCTTGATTCGCTTGACGCTGCTG | 0.315 | 0.279 | 0.387
17 | CCGATTAACATCAGGTAAGTCCATGATGTTAATCGGGTCTTGATTCGCTTGACGCTGCTG | 0.599 | -0.508 | -0.449
18 | CCGATTAACATCACCCCAACCCCTGATGTTAATCGGGTCTTGATTCGCTTGACGCTGCTG | 2.55 | 0.793 | 3.44
19 | CCGATTAACATCAGGAATTTCCATGATGTTAATCGGGTCTTGATTCGCTTGACGCTGCTG | 0.214 | 0.67 | -0.177
20 | CCGATTAACATCAAAGGAATTCCTGATGTTAATCGGGTCTTGATTCGCTTGACGCTGCTG | 0.897 | 0.711 | 0.355
21 | CCGATTAACATCAATTTCCCAGGTGATGTTAATCGGGTCTTGATTCGCTTGACGCTGCTG | 2.16 | 2.4 | 3.41
22 | CCGATTAACATCAGGATTTTTCATGATGTTAATCGGGTCTTGATTCGCTTGACGCTGCTG | -0.0203 | 0.0772 | -0.556
23 | CCGATTAACATCAGGGGTAACCCTGATGTTAATCGGGTCTTGATTCGCTTGACGCTGCTG | 4.06 | 2.99 | 4.77
24 | CCGATTAACATCAAGGACTTTCCTGATGTTAATCGGGTCTTGATTCGCTTGACGCTGCTG | 0.519 | 1.03 | -0.152
25 | CCGATTAACATCAAAAAAATTCCTGATGTTAATCGGGTCTTGATTCGCTTGACGCTGCTG | 0.195 | 1.23 | 0.936
26 | CCGATTAACATCAAGTAATTTCCTGATGTTAATCGGGTCTTGATTCGCTTGACGCTGCTG | 0.203 | -0.425 | 0.59
27 | CCGATTAACATCAAAAAAAGTCCTGATGTTAATCGGGTCTTGATTCGCTTGACGCTGCTG | 1.18 | 1.72 | 0.654
28 | CCGATTAACATCAAGGGGAATCCTGATGTTAATCGGGTCTTGATTCGCTTGACGCTGCTG | 9.67 | 11 | 5.17
29 | CCGATTAACATCAGGGGGGTAAATGATGTTAATCGGGTCTTGATTCGCTTGACGCTGCTG | 4.89 | 4.22 | 
30 | CCGATTAACATCAAAGAAGTCCCTGATGTTAATCGGGTCTTGATTCGCTTGACGCTGCTG | 5.78 | 6.68 | 0.765

— paper PMC5700166
